According to PubChem BioAssay AID504832 (National Center for Advancing Translational Sciences (NCATS), 2011):
“And” between values parts separate entries of the source, which are not always exact repeats. Equal values may be shown once. Out of some 310,000 compounds screened, about 18,000 (5.8%) were called active. The shares of active, inactive and inconclusive entries below differ from those in the screen. Calls follow the shape of the dose curve; as a rule, active = well fitted inhibition curve with a large enough effect; inconclusive = small, poorly fitted or top-dose-only effect, or another doubt; inactive = no such curve, though single readings can be large or run the other way. Potencies of inconclusive entries are doubtful fits and often do not repeat.

Test: Primary qHTS for delayed death inhibitors of the malarial parasite plastid, 48 hour incubation
Settings: P. falciparum luciferase growth in erythrocytes; series mostly up to 28.7 µM
Procedure, shortened: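 Cell-based growth assay: transgenic P. falciparum expressing firefly luciferase, cultured in red cells within RPMI 1640 containing 0.5% w/v Albumax, 24 mM bicarbonate and gentamycin. A drop in luciferase activity indicates inhibition.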
Potency is read from the fitted curve at half-maximal effect; tags tell the direction and shape of the fitted curve.

SMILES	Potency
CCOC(=O)Cc1c(Sc2ccccc2)c2ccccc2n1C	inconclusive: 13.1 µM [inhibitor, single point]
Cc1nc(P(=O)(c2ccccc2)c2ccccc2)c(N2CCOCC2)o1	inconclusive: 1.47 µM [inhibitor, partial curve]
COC(=O)C1=C(c2cccc(OCc3ccccc3)c2)C[C@@H]2CC[C@H]1N2C(=O)NCCCOC(C)C	inconclusive: 13.1 µM [inhibitor, single point]
COCCCn1c(Cc2ccccc2)nnc1SCC(=O)N1CCCCC1	inconclusive: 18.5 µM [inhibitor, single point]
CCN(CC)S(=O)(=O)c1ccc(Cl)c(C(=O)NC(C)C(c2cccs2)N2CCCC2)c1 (stereo not given)	inconclusive: 13.1 µM [inhibitor, single point]
COc1ccc(CNCCc2c[nH]c3ccccc23)c(OC)c1C	inconclusive: 0.0657 µM [inhibitor, full curve, poor fit]
CC(C)[C@@H](C(=O)N[C@@H](Cc1ccccc1)C(=O)O)N1C(=O)N2CCc3c([nH]c4ccccc34)[C@@]2(C)C1=O	inconclusive: 0.0041 µM [inhibitor, full curve, poor fit]
O=C(Nc1cccc(-c2cn3ccsc3n2)c1)c1ccccc1	inactive
COC(=O)c1cncn1C(C)c1ccccc1 (stereo not given)	inactive and inconclusive: 9.28 µM [inhibitor, partial curve, poor fit]
CCOc1ccccc1N(CC(=O)NC1CCCCC1)C(=O)CCC(=O)Nc1nccs1	inconclusive: 13.1 µM [inhibitor, single point]
CCOC(=O)c1ccc(S(=O)(=O)n2c(CN3CCCCC3)nc3ccccc32)cc1	inconclusive: 2.33 µM [inhibitor, full curve]
CCOC(=O)CCCCC(=O)c1[nH]c(=O)[nH]c1CSc1nc2ccccc2[nH]1	inconclusive: 16.5 µM [inhibitor, partial curve, poor fit]
COCCOC(=O)c1cc(C(=O)c2cc(F)ccc2O)coc1=N	inconclusive: 11.7 µM [inhibitor, single point]
O=C(COC(=O)c1ccccc1)Nc1cccc(S(=O)(=O)N2CCCCC2)c1	inconclusive: 10.4 µM [inhibitor, single point]
Cc1cc(C)nc(N/N=C/c2ccccc2)n1	inactive
COc1ccccc1CNC(=O)c1cc(C2CC2)nc2c1cnn2C(C)C	active: 0.928 µM
CS(=O)(=O)NCCCCCCNS(C)(=O)=O	inactive
COc1cc(CN2CCN(Cc3ccc(C(F)(F)F)cc3)CC2)cc(OC)c1OC	inconclusive: 18.5 µM [inhibitor, single point]
Cc1cc2c(s1)c1c(C)nn(Cc3ccccc3F)c(=O)c1n2C	inconclusive: 18.5 µM [inhibitor, partial curve, poor fit]
O=Nc1c2ccc[nH]c-2c2ccc([N+](=O)[O-])cc12	inconclusive: 8.28 µM [inhibitor, partial curve, poor fit]
CC(=O)N1c2ccc(S(=O)(=O)N3CCCCC3)cc2CC1C(=O)NCc1ccccc1C (stereo not given)	inactive
O=C(/C=C/c1cccs1)Nc1ccc(N2CCOCC2)c(S(=O)(=O)Nc2ccccc2Cl)c1	inconclusive: 14.7 µM [inhibitor, partial curve, poor fit]

SMILES	Potency
COc1ccc(CN2CC(=O)N(c3ccc(C)c(C)c3)C2=S)cc1OC	inconclusive: 11.7 µM [inhibitor, single point]
CC(=O)Nc1ccc(S(=O)(=O)NCCC(=O)NCCCc2ccccc2)cc1	inconclusive: 18.5 µM [inhibitor, single point]
C#CC(C)(CC)NC(=O)c1cc2cccc(CC=C)c2oc1=O (stereo not given)	inconclusive: 0.0586 µM [inhibitor, full curve, poor fit]
CCOC(=O)c1cc(NC(=O)c2ccoc2C)cc(C(=O)OCC)c1	inconclusive: 18.5 µM [inhibitor, single point]
COC(=O)CSc1nc(C)cc(C)c1C#N	inactive
O=C(CSc1nc2ccccc2n1CC(=O)N1CCOCC1)N1CCCC1	inactive
CC(C)(C)N1C(=O)Cc2c1nc(N)c1c(N)nc(N3CCCCC3CO)c(C#N)c21 (stereo not given)	inconclusive: 14.7 µM [inhibitor, partial curve, poor fit]
Cc1cc2cc(CN(Cc3cccs3)C(=S)NCC3CCCO3)c(=O)[nH]c2cc1C (stereo not given)	inconclusive: 10.4 µM [inhibitor, partial curve]
Cc1nc2ccccn2c1C(=O)CSc1cccc(Cl)c1	inconclusive: 7.38 µM [inhibitor, partial curve]
CC1CN(C)C(C)C/C1=N/Oc1ccccc1[N+](=O)[O-] (stereo not given)	inactive
Cc1cc(Br)c2[nH]cc(CCNC(=O)c3ccco3)c2c1	inconclusive: 9.28 µM [inhibitor, single point]
CC(=O)c1ccc(N2CCN(C(=O)c3cn(Cc4ccccc4)nc3-c3cccnc3)CC2)c(F)c1	active: 13.1 µM
O=C(c1cc(-c2ccco2)on1)N1CCN(C(c2ccccc2)c2ccccc2)CC1	active: 11.7 µM
COC1C=CO[C@@]2(C)Oc3c(C)c(O)c4c(O)c(c5c(nc6cc(C)ccn65)c4c3C2=O)NC(=O)/C(C)=C\C=CC(C)C(O)[C@@H](C)C(O)C(C)[C@@H](OC(C)=O)C1C (stereo not given in full)	active: 6.75 µM
OCCNc1cc(-n2nc(-c3ccccc3)cc2-c2ccccc2)ncn1	inconclusive: 0.037 µM [inhibitor, full curve, poor fit]
CC1Cc2ccccc2N1C(=O)COC(=O)C1(c2ccccc2F)CCCC1 (stereo not given)	inconclusive: 14.7 µM [inhibitor, single point]
Nc1ccc(Cc2nc3c(ccc4ccccc43)[nH]2)cc1	inactive
O=C(Nc1ncc(Cc2cccc(Cl)c2Cl)s1)C1CCCO1 (stereo not given)	inactive
COc1cccc(CN(C)C(=O)CCN(c2ccccc2)S(=O)(=O)c2ccc(C)cc2)c1OC	inconclusive: 2.08 µM [inhibitor, full curve]
Cc1ccc(S(=O)(=O)NCCc2nnc3ccc(NCCCOC(C)C)nn23)cc1	inconclusive: 0.0093 µM [inhibitor, full curve, poor fit]
Cc1ccc(-n2nc3c(=O)n(C(C)C(=O)NCCCc4ccccc4)nc(C)c3c2C)cc1 (stereo not given)	inconclusive: 18.5 µM [inhibitor, single point]
CC(=O)Nc1ccc(NC(=O)C/C(C)=N/NC(N)=S)cc1	inconclusive: 1.85 µM [inhibitor, full curve, poor fit]

SMILES	Potency
C=CCNC(=S)Nc1ccc(OC(=O)Nc2ccc(Cl)c(Cl)c2)cc1	inconclusive: 14.7 µM [inhibitor, single point]
CCN(c1cccc(C)c1)S(=O)(=O)c1ccc(OC)c([N+](=O)[O-])c1	inconclusive: 10.4 µM [inhibitor, partial curve, poor fit]
Cc1ccccc1-n1c(Cn2c(=O)sc3ccccc32)nnc1SCC(=O)N1CCCC1	inconclusive: 18.5 µM [inhibitor, single point]
Oc1ccc(NCc2ccccc2OCc2ccccc2F)cc1	active: 10.4 µM
Cc1ccc2nc(-c3sc4nc(C)ccc4c3N)[nH]c2c1	inconclusive: 10.4 µM [inhibitor, single point]
CCOc1ccc(S(=O)(=O)/N=C(/c2ccccc2)N(C)C)cc1	inactive
COc1ccc(C)cc1S(=O)(=O)N1CCC(C(=O)NC2CCCC2)CC1	inactive
CC(C)C(NC(=O)c1ccc(C(C)(C)C)cc1)C(=O)NCc1ccccn1 (stereo not given)	inconclusive: 9.28 µM [inhibitor, single point]
CCOc1ccc(CCNC(=O)COC(=O)COc2ccc(C(C)=O)cc2)cc1OCC	inconclusive: 11.7 µM [inhibitor, single point]
FC(F)(F)c1ccc(CN2C[C@@H]3C(c4ccc(Cl)nc4)C4(c5cccnc5)CC3(C4)[C@H]2c2ccccc2)cc1 (stereo not given in full)	active: 3.29 µM
CCc1ccc(C(=O)NNC(=O)c2c(CC)noc2C)cc1	inactive
Cc1cc(C(F)(F)F)nn1Cc1ccc(C(=O)NCc2ccco2)o1	inconclusive: 11.7 µM [inhibitor, single point]
CN(c1ccccc1)S(=O)(=O)c1cccc(NC(=O)COC(=O)C2CCCCC2)c1	inactive
CCC(C)/C(C)=N/NC(=O)CNS(=O)(=O)c1ccc([N+](=O)[O-])cc1 (stereo not given)	inconclusive: 9.28 µM [inhibitor, single point]
Cc1ccc(NC(=O)c2cc([N+](=O)[O-])ccc2Cl)c(O)c1	inconclusive: 18.5 µM [inhibitor, partial curve, poor fit]
COc1ccc(-c2ccc3c(c2)c(-c2cccs2)c(-c2cc(OC)cc(OC)c2)n3C)cc1	active: 2.62 µM
CS(=O)(=O)c1ccc(C(=O)Nc2cc(-c3ccccc3)nn2-c2ccccc2)cc1	inconclusive: 18.5 µM [inhibitor, single point]
C=CCN(c1ccccc1C(=O)NCC(=O)OCC)S(=O)(=O)c1ccc(C)cc1	inconclusive: 2.62 µM [inhibitor, partial curve, poor fit]
CCn1c(SCC(=O)NC2CC2)nnc1C(C)Oc1ccccc1 (stereo not given)	inconclusive: 0.0828 µM [inhibitor, full curve, poor fit]
CCOc1ccc(CN2CCC(Cc3ccccc3)CC2)cc1	inactive
COCCCNC(=O)c1ccc(-n2nc(C(F)(F)F)cc2-c2cccs2)cc1	active: 11.7 µM
